Test results published in PubChem BioAssay AID1745853 (National Center for Advancing Translational Sciences (NCATS), 2022).
The other results are listed elsewhere or left out. Further columns of the screen follow, without active or inactive calls.

How the values were obtained:
Experiment in all cases: Primary Screen for Target Class Profiling of Small Molecule Inhibitors of Methyltransferases
[1] = target: Glycine N-methyltransferase (Homo sapiens) (UniProt Q14749); settings: purified enzyme, MTase-Glo SAH luminescence; measured here: GNMT inhibition; at 40 µM; stronger effect = lower value
Outline: (§1)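 Each enzyme was assayed with SAM and its substrate. SAH formation detected by MTase-Glo luminescence; single-point 40 uM screen[…].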

[2] = target: Guanidinoacetate N-methyltransferase (Homo sapiens) (UniProt Q14353); settings: purified enzyme, MTase-Glo SAH luminescence; measured here: GAMT inhibition; at 40 µM; stronger effect = lower value
Outline: as §1

[3] = target: Histamine N-methyltransferase (Homo sapiens) (UniProt P50135); settings: purified enzyme, MTase-Glo SAH luminescence; measured here: HNMT inhibition; at 40 µM; stronger effect = lower value
Outline: as §1

[4] = target: Nicotinamide N-methyltransferase (Homo sapiens) (UniProt P40261); settings: purified enzyme, MTase-Glo SAH luminescence; measured here: NNMT inhibition; at 40 µM; stronger effect = lower value
Outline: as §1

[5] = target: Phenylethanolamine N-methyltransferase (Homo sapiens) (UniProt P11086); settings: purified enzyme, MTase-Glo SAH luminescence; measured here: PNMT inhibition; at 40 µM; stronger effect = lower value
Outline: as §1
On the % scale 0 is the no-effect control and ±100 the full control effect.

Structure (SMILES)	activity change, negative = inhibition [1] [%]	activity change, negative = inhibition [2] [%]	activity change, negative = inhibition [3] [%]	activity change, negative = inhibition [4] [%]	activity change, negative = inhibition [5] [%]
C=CC(=O)Nc1ccc2ncnc(Nc3cccc(Br)c3)c2c1	-56.2	-46.6	-56.3	-48.4	-58.2
CC(C)(C)n1nnnc1C1CC2(CCOCC2)C(=O)N1Cc1cccs1 (stereo not given)	-5.24	-8.85	-2.22	-13.3	-5.78
Cc1cccc(NC(=O)Cn2c(=O)oc3cc(S(=O)(=O)NC4CCCC4)ccc32)c1	0.203	2.06	10.4	10.3	-7.29
CCC(C)NC(=O)c1ccc2c(=O)n(C)c3nn(CC(=O)c4ccccc4)c(=O)n3c2c1 (stereo not given)	-0.835	11	4.72	-3.82	4.88
Cc1cc(C)cc(N2C(=O)c3cc4occc4n3CC2(C)C(=O)NC2CCCC(C)C2C)c1 (stereo not given)	-12.6	-7.62	-5.87	-15.7	-11.7
COc1ccccc1N1CCN(S(=O)(=O)c2cccc3c2C(=O)c2ccccc2C3=O)CC1	-7.99	-0.685	-7.33	-4.93	-47
COc1ccc(N2C(=O)CSc3c(c4ccccc4n3C)C2C(=O)NCCC(C)C)cc1 (stereo not given)	3.86	4.8	-6.06	-5.22	-1.83
CC1CCN(S(=O)(=O)c2ccc3c(ccn3CC(=O)NCCc3ccco3)c2)CC1	3.15	2.32	0.849	1.59	0.392
CC(C)Cn1c(=O)c2ccc(C(=O)NC(C)C)cc2n2c(SCC(=O)NCc3ccccc3)nnc12	1.1	4.09	-0.703	-1.82	-0.646
CCOC(=O)c1cc2n(n1)CC(C)(C(=O)NC1CCCCC1)N(c1cccc(C)c1C)C2=O (stereo not given)	5.8	0	-1.76	5.16	4.84
CCC(C)NC(=O)c1ccc2c(=O)n(C)c3nn(CC(=O)c4ccc(OC)cc4)c(=O)n3c2c1 (stereo not given)	-1.65	5.24	1.44	-3.24	1.38
CC1CCC(NC(=O)C2(C)Cn3c(ccc3-c3ccco3)C(=O)N2Cc2ccccc2Cl)CC1 (stereo not given)	1.03	3.71	4.33	-0.043	-0.087
Cc1ncccc1C(=O)N1CC[C@@H]2COCCN(Cc3ccncc3)[C@@H]2C1	-6.57	-5.23	-1.59	-13.7	-1.9
Cc1cc2c(cc1S(=O)(=O)Nc1cccc(Cl)c1C)n(C)c(=O)n2C	6.11	0	3.82	-3.06	-2.33
COc1ccc(Nc2ccnc(N3CCCC(C(=O)NCc4ccc(F)cc4)C3)n2)cc1 (stereo not given)	-11.1	-10.7	-9.77	-22.2	-11.9
CCOc1ccc(CN2C(=O)c3cc(C4CC4)nn3CC2(C)C(=O)NC2CCCCCC2)cc1 (stereo not given)	-1.1	0	3.88	-2.37	-0.297
CCCCN1C(=O)c2cc(C(=O)Nc3ccc(F)cc3)nn2CC1(C)C(=O)NC1CCCC1 (stereo not given)	8.47	2.21	-9.56	5.74	6.47
COc1cccc(CN2C(=O)c3cc(C4CC4)nn3CC2(C)C(=O)NC2CCCCCC2)c1OC (stereo not given)	-0.736	0.178	4.57	-9.19	-0.085
